Reference: PMC7819943, “Rice protein-binding microarrays: a tool to detect cis-acting elements near promoter regions in rice”
Some of the results follow.

The sequences below were run against T1, OsWOX13 (Oryza sativa, UniProt Q5QMM3 1-267) (assay: protein-binding microarray (RPBM); PBS, 2% BSA, 51.3 ng/ul salmon testes DNA, 50 uM zinc acetate, 200 nM TF, 25 C, 1 h; high values mean tight binding). Conditions: protein: recombinant; tags: N-terminal polyhistidine and DsRed monomer fusion (pET32a); label: CyDye5-dUTP incorporated in the synthesized complementary strand; 3' TTTTT single-stranded linker to array surface; dsDNA, one strand shown.
T1 sequence: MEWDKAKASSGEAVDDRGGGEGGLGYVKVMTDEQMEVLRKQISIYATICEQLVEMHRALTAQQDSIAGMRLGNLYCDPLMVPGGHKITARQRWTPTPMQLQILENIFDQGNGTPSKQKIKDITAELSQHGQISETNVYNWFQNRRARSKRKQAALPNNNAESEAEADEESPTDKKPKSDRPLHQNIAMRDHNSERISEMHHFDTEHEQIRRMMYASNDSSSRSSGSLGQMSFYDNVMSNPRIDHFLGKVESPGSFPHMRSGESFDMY
Summary of the method: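 Binding signal is defined as the fluorescence intensity of each feature in arbitrary units, read on an Axon 4000B scanner. Transcription factors with N-terminal polyhistidine and DsRed fusions came from E. coli BL21-CodonPlus and were purified on Ni–NTA. They were incubated at 200 nM for 1 h at 25 °C on a custom Agilent array that had been made double-stranded with Cy5-dUTP, with 50 µM zinc acetate present, and the array was washed.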

Sequence | binding signal
GATGATGTAATTGAAATTGTAGTAGTGCATATAATACTCCCGGAGTCACCTAGTGCAG | 42300 fluorescence intensity (a.u.)
TTATATAAATAGGCTATTAGATTATCTATAGATAATTTAGCGGAGTCACCTAGTGCAG | 4900 fluorescence intensity (a.u.)
TTATTCCTGAGTAATTTAAACTGGGAGGCCCAGCTAACTGCGGAGTCACCTAGTGCAG | 3200 fluorescence intensity (a.u.)
GTCCAATCACTTACGTTTCACGTAAGCGTCCGATCTGGCACGGAGTCACCTAGTGCAG | 11100 fluorescence intensity (a.u.)
AACGAGAGTAGCTCAATTGATTATTGTTACTCACGATAGACGGAGTCACCTAGTGCAG | 3430 fluorescence intensity (a.u.)
TCCCATACAAATGGATTGTTCAATCATATAATTGCTGCATCGGAGTCACCTAGTGCAG | 9900 fluorescence intensity (a.u.)
TTGTAATGTAGAATATTAATTAGATATAGTTAATCTCTAACGGAGTCACCTAGTGCAG | 4860 fluorescence intensity (a.u.)
ACCAAACTTTCAAATTTAAGTGAACTAAATACACCCTTGACGGAGTCACCTAGTGCAG | 3560 fluorescence intensity (a.u.)
TTTAAATGAAATGAGTTGCATATCACTATAAGAGTTTGTTCGGAGTCACCTAGTGCAG | 5620 fluorescence intensity (a.u.)
ATGATATAAATGATGAGAGAGAAGAGCAGCGGGTTACAGACGGAGTCACCTAGTGCAG | 3950 fluorescence intensity (a.u.)
AAGAATTAATAGACAAAGTAATTTTATATTTCTTATGGCTCGGAGTCACCTAGTGCAG | 28100 fluorescence intensity (a.u.)
CAATGATTGGACTAAAGAAAATGCTAATATTAATGGTATGCGGAGTCACCTAGTGCAG | 52300 fluorescence intensity (a.u.)
CCATGATTAAATAATGTTGGTTGAACGTTAATGCATGTACCGGAGTCACCTAGTGCAG | 40000 fluorescence intensity (a.u.)
CTGGAGCTAATTAATGGTGCATTTTGCACGGTCTTTGTGCCGGAGTCACCTAGTGCAG | 5940 fluorescence intensity (a.u.)
GTGCCGTTAGTGCTAATCAAGGCAATCAATAAAAGATCAGCGGAGTCACCTAGTGCAG | 27400 fluorescence intensity (a.u.)
TCAATCCATCAGCATTAGCAATTGCCTATAACATGTCCAGCGGAGTCACCTAGTGCAG | 3310 fluorescence intensity (a.u.)
TTTTAATGTTCGAAAATTTAATTATTCACCTTTTCAAGTTCGGAGTCACCTAGTGCAG | 3390 fluorescence intensity (a.u.)
AAATATATTAATTAGTGGTAATATATCTTGTGAGATGCATCGGAGTCACCTAGTGCAG | 15700 fluorescence intensity (a.u.)
CCACTTGACAGCCATTATAGCTAGCATGGTAGAAGTAGAACGGAGTCACCTAGTGCAG | 5400 fluorescence intensity (a.u.)
TGTATTGAATTATTAATTTGGTTTTCTATCTCATCAAGGGCGGAGTCACCTAGTGCAG | 11600 fluorescence intensity (a.u.)
ATTTAATTTATTATTAAATATACTTTTAGCATGACTTATTCGGAGTCACCTAGTGCAG | 17000 fluorescence intensity (a.u.)

Sequence | binding signal
ATGTGTTGATTTGTGTGTATGACTCAGCTTACTACTACATCGGAGTCACCTAGTGCAG | 19400 fluorescence intensity (a.u.)
AGATCTAATTTACACTGGTTTTAATAGTTGATGGATGCGACGGAGTCACCTAGTGCAG | 9620 fluorescence intensity (a.u.)
TTTATAATTGACTCCAAACCAAATACAACTTGTTTGTTCTCGGAGTCACCTAGTGCAG | 33500 fluorescence intensity (a.u.)
TTCAACTTTGCATTTTCTGATTAGCACAACTGCGTTTCTTCGGAGTCACCTAGTGCAG | 3920 fluorescence intensity (a.u.)
AACAATTAGATAGGCTACCCCAAATATTGTACTGGTGTGACGGAGTCACCTAGTGCAG | 6050 fluorescence intensity (a.u.)
GAGGGGATGTGTCAATTTGGGACCTAAATGATACACTTTGCGGAGTCACCTAGTGCAG | 7440 fluorescence intensity (a.u.)
TGCTTTGATTTTACGTCACATACACATGGTGATGCTTCAACGGAGTCACCTAGTGCAG | 6250 fluorescence intensity (a.u.)
GATAACGGAAATCAATCAACCGCTCCCTCGCTCACGGGTGCGGAGTCACCTAGTGCAG | 22000 fluorescence intensity (a.u.)
ATCCTAATTCCTCAAATTATCCACTATCCGGGATTGTCACCGGAGTCACCTAGTGCAG | 13700 fluorescence intensity (a.u.)
GTCTAACTATATTGCAATTGATATAACTGCAAAATGTCCTCGGAGTCACCTAGTGCAG | 19900 fluorescence intensity (a.u.)
TTGTTGATTTGTACCCAGTGATACAAGGCTAATTAAACTTCGGAGTCACCTAGTGCAG | 20700 fluorescence intensity (a.u.)
GACTCTATCTAGAAATTAAATTTAATCAACACATGTAAGTCGGAGTCACCTAGTGCAG | 12800 fluorescence intensity (a.u.)
CACTGACAGGTAGCTAGCATTATTTCAGATGATATATTCCCGGAGTCACCTAGTGCAG | 8350 fluorescence intensity (a.u.)
GCTATAGATAAATTGAAGCTAGTAGTTGGCCATACTGTTGCGGAGTCACCTAGTGCAG | 9790 fluorescence intensity (a.u.)
CCATTGATTATAATTAAAGACTGTTAGGCAATTGACACAACGGAGTCACCTAGTGCAG | 54000 fluorescence intensity (a.u.)
AGATAAATATTTTATAAATTATTTATAGTCAAAGATTTGACGGAGTCACCTAGTGCAG | 8270 fluorescence intensity (a.u.)
GGTAATAAACTAAATGTATCCATATGTTTATCAATTTTACCGGAGTCACCTAGTGCAG | 4260 fluorescence intensity (a.u.)
TAGGCTCAATCATTCAATCGATTCACTATAGTGAGTTAGTCGGAGTCACCTAGTGCAG | 11900 fluorescence intensity (a.u.)
TGGTATGATTTATTTTGGCTACAGTCTAAACAGACCCGAACGGAGTCACCTAGTGCAG | 9110 fluorescence intensity (a.u.)
ATTATTATAAATTATTTCCTCCGTTTCACAATGTAAGTCACGGAGTCACCTAGTGCAG | 5530 fluorescence intensity (a.u.)
ATATCTGTCACATTTTGTTCTCTGAAATTAACCTGAATATCGGAGTCACCTAGTGCAG | 3340 fluorescence intensity (a.u.)

Sequence | binding signal
CCGCACAAATTAAGTTAAGTAGTTGACAACTAAGTCAAGACGGAGTCACCTAGTGCAG | 7560 fluorescence intensity (a.u.)
TAGCTGATTAATTGATTATAACCCATAATAATAAATTATACGGAGTCACCTAGTGCAG | 19400 fluorescence intensity (a.u.)
CCTCGCAATTAATAAGATCCGTAAACATCATCTTCACCGGCGGAGTCACCTAGTGCAG | 4160 fluorescence intensity (a.u.)
CACACTATTGATATATAATTTCTCATGTTATATACACATTCGGAGTCACCTAGTGCAG | 7540 fluorescence intensity (a.u.)
GTTCTTCATTGACAGATGCAAGGCTCCACCAGTCCACCTCCGGAGTCACCTAGTGCAG | 6170 fluorescence intensity (a.u.)
AAATAAATTAACTATTATACATGACTCTGGACAAATACATCGGAGTCACCTAGTGCAG | 28500 fluorescence intensity (a.u.)
TAGCAAATCATAATTTCTACCGTGACGGGCGACGACACTACGGAGTCACCTAGTGCAG | 13500 fluorescence intensity (a.u.)
AATAGATCACCCCTAATTACAATAGAGTACTGTAAAAGGGCGGAGTCACCTAGTGCAG | 7320 fluorescence intensity (a.u.)
CCGGATTGCTGGATCATTTTCTTCTCGGCCCATTGGACTCCGGAGTCACCTAGTGCAG | 3410 fluorescence intensity (a.u.)
TTTTAAATATCCAAAATTGATTTTGGATAACTACTCGACACGGAGTCACCTAGTGCAG | 17200 fluorescence intensity (a.u.)
GCTCTGACTGTCTGATACATCATTTGCGAGCTGAGAGAAACGGAGTCACCTAGTGCAG | 4530 fluorescence intensity (a.u.)
ACTCCATTATTGATTCTTGCAAGGAGGAAGAGCAGCTAGACGGAGTCACCTAGTGCAG | 6420 fluorescence intensity (a.u.)
GTGTAATTTATGAAACTTACACTGTAACTTTTGTAAGTTACGGAGTCACCTAGTGCAG | 18100 fluorescence intensity (a.u.)
ACGATTCCCAATCAAAGCCCCAAACAACCATCATGCACAACGGAGTCACCTAGTGCAG | 5890 fluorescence intensity (a.u.)
AAGAGAAAGTGGTAATTAGCGGGAACTATTCAAAGCTCTCCGGAGTCACCTAGTGCAG | 5320 fluorescence intensity (a.u.)
ATTTGGATTGAAGCCAAAATTTGCCCATAAGAGATAAGTTCGGAGTCACCTAGTGCAG | 7690 fluorescence intensity (a.u.)
CAGAAACCTCGCGAATTGATTGCTCCAGCTTATGATTGCCCGGAGTCACCTAGTGCAG | 19800 fluorescence intensity (a.u.)
CTTCACTCAATAACAAATTATACCCACACACATACCCATCCGGAGTCACCTAGTGCAG | 5440 fluorescence intensity (a.u.)
TCTGATTAATTTGACGGCCACAAAATACTTAGTTTGGCAACGGAGTCACCTAGTGCAG | 65000 fluorescence intensity (a.u.)
CTTAATTTGTTGCTGTTCTGTTTAGGGGATAGGTTAGTCCCGGAGTCACCTAGTGCAG | 33800 fluorescence intensity (a.u.)
ATTTAATTATCTCTCTATACACATGCACTGTACATGTATTCGGAGTCACCTAGTGCAG | 15300 fluorescence intensity (a.u.)

Sequence | binding signal
CGTTAATCGTTGTGATTGATGTCGGATATGTTTGCCACCACGGAGTCACCTAGTGCAG | 58600 fluorescence intensity (a.u.)
TTAAACAAAATTGTGTTTCGATTTCCTAAAATACGATTCACGGAGTCACCTAGTGCAG | 3170 fluorescence intensity (a.u.)
TCTTCAATCAGACACACTCTCTTTCTTCCCTTCCAAGGCGCGGAGTCACCTAGTGCAG | 25300 fluorescence intensity (a.u.)
ACTAATGTGAATTTGAATGTTAACATGTTACGCCAGTCAACGGAGTCACCTAGTGCAG | 12200 fluorescence intensity (a.u.)
CTCAATGATAATGATACCTAATTAAAACGTAGTTTTCCCACGGAGTCACCTAGTGCAG | 6480 fluorescence intensity (a.u.)
TTATGATGAGAAGTTAATACTCAAGATTACCATGAAGACTCGGAGTCACCTAGTGCAG | 5000 fluorescence intensity (a.u.)
AAGTCTAATTTATCTCCCTGTTGCTACAGTAGCTTCTTCACGGAGTCACCTAGTGCAG | 3890 fluorescence intensity (a.u.)
TCTATCTAATTTAGCTAGTCAAACAGTCTTTTACTCCAACCGGAGTCACCTAGTGCAG | 4690 fluorescence intensity (a.u.)
ATAAGATAATAAATTAGATAAACGGAACATAAATAAGGCTCGGAGTCACCTAGTGCAG | 10800 fluorescence intensity (a.u.)
CTAATTGCTACCCTCTAAACTGTTACAACATAATCTTTGGCGGAGTCACCTAGTGCAG | 13900 fluorescence intensity (a.u.)
AGCTGAGAGTGATTGCTTGACAAAAGAATTAGGACTCAGGCGGAGTCACCTAGTGCAG | 19900 fluorescence intensity (a.u.)
AATGACTGATGTATGTGCGTATAGCGAGAAAGAGGAGAGTCGGAGTCACCTAGTGCAG | 15900 fluorescence intensity (a.u.)
ATTTAAGTGCTAAATTAGTAATTTAATCCCACTAGGAAGCCGGAGTCACCTAGTGCAG | 23800 fluorescence intensity (a.u.)
GCAAGATTAATTGTTTTGCTAACTTGAACTATCTAGAAGTCGGAGTCACCTAGTGCAG | 30700 fluorescence intensity (a.u.)
GGAAATGATTGGTACATTGAAGATAGGAGTACCCTTGAAGCGGAGTCACCTAGTGCAG | 48300 fluorescence intensity (a.u.)
CCTATAATATAACTTTGCTATTAATTAGGGGTATTTTGGTCGGAGTCACCTAGTGCAG | 6250 fluorescence intensity (a.u.)
GCCAAGCCAAATGAATGATTGCTGTGGTGAAGGGCGACTACGGAGTCACCTAGTGCAG | 3830 fluorescence intensity (a.u.)
GTAACTTCGGAACAATTGATTGTACTGTAGGGGTGGGATTCGGAGTCACCTAGTGCAG | 7990 fluorescence intensity (a.u.)
ATGCATGCATGCAGATTAATTAGTGCATTGACACAAGTGTCGGAGTCACCTAGTGCAG | 4350 fluorescence intensity (a.u.)
CTTATTCAAGATTTATATAATTATCATTTATTTTATTGGGCGGAGTCACCTAGTGCAG | 5050 fluorescence intensity (a.u.)
CGAGTGACGAGGTCTTGGGTTGGGGTAGGGGTGGGATGAGCGGAGTCACCTAGTGCAG | 3960 fluorescence intensity (a.u.)
